From the antibiotic and cytotoxicity screens of Wong et al. (2023) come the findings set out here.

The list shows a part of the results.

The subject of one assay is HSkMC. The experiment in a line: cytotoxicity call (relative viability < 0.9). The settings on record: 10 µM.
A further assay concerns HepG2. Briefly: cytotoxicity call (relative viability < 0.9). The settings on record: 10 µM.
A further assay has as its system S. aureus RN4220. The experiment in a line: growth inhibition call (relative growth <= 0.2). The settings on record: 50 µM.

`C[C@@H]1CN([C@H](C)CO)C(=O)c2cccc(NS(=O)(=O)c3cn(C)cn3)c2O[C@@H]1CN(C)Cc1ccc(C(=O)O)cc1`: the cytotoxicity call in the assay with HSkMC and in the assay with HepG2 was “inactive” each time. The growth inhibition call with S. aureus RN4220 is “inactive”.
With `CNC[C@@H]1Oc2ccc(NS(=O)(=O)c3cn(C)cn3)cc2C(=O)N([C@H](C)CO)C[C@@H]1C`, the cytotoxicity call in the assay with HSkMC and in the assay with HepG2 was “inactive” each time. In the assay on S. aureus RN4220, the growth inhibition call was “inactive”.
In the case of `Cc1noc(C)c1NC(=O)Nc1ccc2c(c1)C(=O)N([C@H](C)CO)C[C@H](C)[C@@H](CN(C)S(=O)(=O)c1cn(C)cn1)O2`, the cytotoxicity call with HSkMC and in the assay on HepG2 was “inactive” each time. In addition, the growth inhibition call with S. aureus RN4220 is “inactive”.
`Cc1nnc(NS(=O)(=O)c2ccc(N)cc2)s1`: the cytotoxicity call with HSkMC and in the assay with HepG2 was “inactive” throughout. Also, the growth inhibition call with S. aureus RN4220 is “inactive”.
For `CC(C)NC(=O)Nc1ccc2c(c1)CC(=O)N([C@H](C)CO)C[C@H](C)[C@@H](CN(C)Cc1ccc(-c3ccccc3)cc1)O2`, the cytotoxicity call with HSkMC and in the assay on HepG2 was “inactive” throughout. Moreover, in the assay on S. aureus RN4220, the growth inhibition call was “inactive”.
For the compound `OCCOCc1nnn2c1CN(c1ncccn1)CCC2`, the cytotoxicity call with HSkMC and in the assay with HepG2 was “inactive” each time. Also, the growth inhibition call in the assay with S. aureus RN4220 is “inactive”.
Regarding `O=C(C[C@H]1C=C[C@H](NC(=O)CN2CCOCC2)[C@@H](CO)O1)NC1CCCCC1`, the cytotoxicity call with HSkMC and in the assay with HepG2 was “inactive” in each case. Also, in the assay on S. aureus RN4220, the growth inhibition call was “inactive”.
Turning to `C[C@@H]1CCCCO[C@H](CN(C)C(=O)NC2CCCCC2)[C@H](C)CN([C@H](C)CO)C(=O)c2cc(NS(=O)(=O)c3ccc(F)cc3)ccc2O1`, the cytotoxicity call in the assay with HSkMC was “inactive”. Moreover, in the assay on HepG2, the cytotoxicity call was “active”. The growth inhibition call in the assay with S. aureus RN4220 was “inactive”.
Take `COc1ccc(NC(=O)N(C)C[C@@H]2OCCCC[C@@H](C)Oc3ccc(NC(=O)c4ccccc4)cc3C(=O)N([C@H](C)CO)C[C@@H]2C)cc1`: the cytotoxicity call in the assay on HSkMC and with HepG2 was “inactive” each time. Also, in the assay with S. aureus RN4220, the growth inhibition call is “inactive”.
Consider `COc1ccc(-c2cnc3c(c2)C(=O)N([C@@H](C)CO)C[C@@H](C)[C@H](CN(C)C(=O)Cc2cccnc2)O3)cc1`, for which the cytotoxicity call in the assay on HSkMC and with HepG2 was “inactive” throughout. Further, in the assay with S. aureus RN4220, the growth inhibition call is “inactive”.
For `C[C@H](CO)N1C[C@H](C)[C@@H](CN(C)C(=O)c2ccncc2)OCCCC[C@H](C)Oc2ccc(NC(=O)C3CCCCC3)cc2C1=O`, the cytotoxicity call with HSkMC and in the assay with HepG2 was “inactive” throughout. The growth inhibition call in the assay on S. aureus RN4220 is “inactive”.
With `CCc1nc2ccc(C(=O)N3CCN(C(=O)c4ccco4)CC3)cn2c1N(C)C(=O)c1cccc(OC)c1`, the cytotoxicity call in the assay with HSkMC and in the assay with HepG2 was “inactive” throughout. For the same compound, the growth inhibition call in the assay on S. aureus RN4220 was “inactive”.
For the compound `C[C@@H]1CN([C@@H](C)CO)S(=O)(=O)c2ccc(C#Cc3ccncc3)cc2O[C@H]1CN(C)C(=O)C1CCCCC1`, the cytotoxicity call with HSkMC was “inactive”. Further, the cytotoxicity call with HepG2 is “active”. The growth inhibition call in the assay with S. aureus RN4220 was “inactive”.
`O=C(C[C@@H]1C[C@@H]2c3cc(NC(=O)Cc4ccncc4)ccc3O[C@@H]2[C@@H](CO)O1)NCCN1CCCCC1`: the cytotoxicity call in the assay with HSkMC and in the assay with HepG2 was “inactive” throughout. Besides, the growth inhibition call in the assay on S. aureus RN4220 is “inactive”.
For the compound `C[C@H]1CN([C@@H](C)CO)C(=O)c2cc(NC(=O)Cc3ccccc3)ccc2O[C@H]1CN(C)C(=O)Nc1ccc(C(F)(F)F)cc1`, the cytotoxicity call in the assay on HSkMC and in the assay on HepG2 was “inactive” in each case. For the same compound, the growth inhibition call with S. aureus RN4220 is “inactive”.
Regarding `C[C@H](CO)N1C[C@H](C)[C@@H](CN(C)C(=O)Nc2cccc3ccccc23)OCCCC[C@H](C)Oc2ccc(NS(=O)(=O)c3ccc(Cl)cc3)cc2C1=O`, the cytotoxicity call with HSkMC and in the assay with HepG2 was “inactive” throughout. Besides, the growth inhibition call with S. aureus RN4220 is “inactive”.
Regarding `C[C@@H]1CN([C@@H](C)CO)S(=O)(=O)c2ccc(Br)cc2O[C@H]1CN(C)C(=O)c1cnccn1`, the cytotoxicity call in the assay on HSkMC and in the assay on HepG2 was “inactive” throughout. The growth inhibition call with S. aureus RN4220 was “inactive”.
Turning to `C[C@@H]1CN([C@H](C)CO)C(=O)Cc2cc(NS(=O)(=O)c3ccc(F)cc3)ccc2O[C@@H]1CN(C)Cc1ccc(-c2ccccc2)cc1`, the cytotoxicity call with HSkMC and in the assay on HepG2 was “active” in each case. For the same compound, the growth inhibition call in the assay with S. aureus RN4220 is “inactive”.
With `CC(=O)N1C[C@@H]2C(=O)N(C)C3(CCN(S(=O)(=O)Cc4ccccc4)CC3)[C@H]2C1`, the cytotoxicity call in the assay on HSkMC and in the assay on HepG2 was “inactive” in each case. For the same compound, in the assay on S. aureus RN4220, the growth inhibition call was “inactive”.
For the compound `C[C@H]1CN([C@@H](C)CO)C(=O)c2cc(NC(=O)Nc3ccc(C(F)(F)F)cc3)ccc2O[C@H]1CN(C)Cc1ccc(C(F)(F)F)cc1`, the cytotoxicity call in the assay with HSkMC was “active”. In the assay with HepG2, the cytotoxicity call is “inactive”. Further, the growth inhibition call in the assay with S. aureus RN4220 was “inactive”.
Take `C[C@@H]1CN([C@@H](C)CO)C(=O)c2cc(NC(=O)Nc3ccc(C(F)(F)F)cc3)ccc2O[C@H]1CN(C)C(=O)Nc1cccc2ccccc12`: the cytotoxicity call in the assay with HSkMC and in the assay on HepG2 was “inactive” throughout. Besides, the growth inhibition call in the assay on S. aureus RN4220 is “inactive”.
Regarding `C[C@H](CO)N1C[C@H](C)[C@@H](CN(C)CC2CCCCC2)OCCCC[C@H](C)Oc2ccc(NC(=O)Nc3ccc(C(F)(F)F)cc3)cc2C1=O`, the cytotoxicity call in the assay on HSkMC and in the assay on HepG2 was “active” throughout. Also, the growth inhibition call with S. aureus RN4220 is “inactive”.
As for `C[C@@H]1CCCCO[C@H](CN(C)CC2CCCCC2)[C@@H](C)CN([C@H](C)CO)C(=O)c2cc(NC(=O)CCCCCC(=O)Nc3ccccc3N)ccc2O1`, the cytotoxicity call with HSkMC and with HepG2 was “inactive” each time. Also, the growth inhibition call in the assay on S. aureus RN4220 is “inactive”.
With `C[C@H]1CN([C@@H](C)CO)C(=O)CCCn2nncc2CO[C@@H]1CN(C)C(=O)Nc1ccc2c(c1)OCO2`, the cytotoxicity call in the assay on HSkMC (human skeletal muscle cells) and in the assay with HepG2 was “inactive” in each case. Also, the growth inhibition call with S. aureus RN4220 was “inactive”.
Regarding `C[C@@H]1CCCCO[C@H](CN(C)C(=O)NC2CCCCC2)[C@H](C)CN([C@@H](C)CO)C(=O)c2cc(NS(=O)(=O)c3ccc(F)cc3)ccc2O1`, the cytotoxicity call with HSkMC and in the assay with HepG2 was “inactive” in each case. Also, in the assay on S. aureus RN4220, the growth inhibition call is “inactive”.
For `C[C@H]1COC(=O)[C@H](Cc2ccc(F)cc2)CC=CC[C@@H](CC(=O)N[C@@H](CO)Cc2ccccc2)C(=O)N1`, the cytotoxicity call in the assay with HSkMC and in the assay on HepG2 was “inactive” in each case. Also, the growth inhibition call with S. aureus RN4220 was “inactive”.
In the case of `COc1ccc(CNC(=O)C[C@H]2C[C@@H]3c4cc(NS(=O)(=O)c5ccc(F)cc5)ccc4O[C@@H]3[C@@H](CO)O2)cc1`, the cytotoxicity call with HSkMC and with HepG2 was “inactive” each time. Besides, in the assay on S. aureus RN4220, the growth inhibition call was “inactive”.
